Experimental data as given in EPA's CvTdb concentration-time database.
Further values from the same series stand in other lists. Values belong to the compound of their own block, whether it stands above or below them.

Assays:
Rat [1] = test: concentration in brain after dosing; details: 1.5 h; dosed: 2-Methyltetrahydrofuran; 400 mg/kg; oral; Female; F344
Rat [2] = test: concentration in brain after dosing; details: 4 min; dosed: 2-Methyltetrahydrofuran; 10 mg/kg; oral; Female; F344
Rat [3] = test: concentration in plasma after dosing; details: 4 h; dosed: 2-Methyltetrahydrofuran; 100 mg/kg; oral; Male; Harlan Sprague Dawley
Rat [4] = test: concentration in brain after dosing; details: 0.25 h; dosed: 2-Methyltetrahydrofuran; 10 mg/kg; oral; Male; F344
Rat [5] = test: concentration in plasma after dosing; details: 0.75 h; dosed: 2-Methyltetrahydrofuran; 30 mg/kg; oral; Female; F344
Rat [6] = test: concentration in plasma after dosing; details: 5 min; dosed: 2-Methyltetrahydrofuran; 10 mg/kg; iv; Female; F344
Rat [7] = test: concentration in plasma after dosing; details: 1 h; dosed: 2-Methyltetrahydrofuran; 30 mg/kg; oral; Male; F344
Rat [8] = test: concentration in plasma after dosing; details: dosed: Fluorotelomer alcohol 8+2, 48 mg/kg, oral, Male, Harlan Sprague Dawley
Rat [9] = test: concentration in plasma after dosing; details: 6 h; dosed: Fluorotelomer alcohol 8+2; 80 mg/kg; oral; Female; Harlan Sprague Dawley
Rat [10] = test: concentration in plasma after dosing; details: dosed: Formamide, 90 mg/kg, iv, Male, Harlan Sprague Dawley
Rat [11] = test: concentration in plasma after dosing; details: dosed: Formamide, 90 mg/kg, iv, Male, Harlan Sprague Dawley; remark: listed apart in the source
Rat [12] = test: concentration in plasma after dosing; details: 2 h; dosed: Pyridine; 50 mg/kg; oral; Male; Harlan Sprague Dawley
Rat [13] = test: concentration in plasma after dosing; details: 6 h; dosed: Pyridine; 50 mg/kg; oral; Female; F344
Rat [14] = test: concentration in plasma after dosing; details: 10 min; dosed: Pyridine; 50 mg/kg; oral; Female; F344

concentration in brain (Rat [1]): 116 µg/g | concentration in brain (Rat [2]): 3.43 µg/g | concentration in plasma (Rat [3]): 12.7 µg/mL | concentration in brain (Rat [4]): 2.17 µg/g | concentration in plasma (Rat [5]): 15.3 µg/mL | concentration in plasma (Rat [6]): 12.3 µg/mL | concentration in plasma (Rat [7]): 16.5 µg/mL
SMILES: CC1CCCO1 (configuration not stated) [2-Methyltetrahydrofuran]

concentration in plasma (Rat [8]; 0.25 h): 0.086 µg/mL | concentration in plasma (Rat [8]; 6 h): 0.15 µg/mL | concentration in plasma (Rat [9]): 0.125 µg/mL
SMILES: OCCC(F)(F)C(F)(F)C(F)(F)C(F)(F)C(F)(F)C(F)(F)C(F)(F)C(F)(F)F [Fluorotelomer alcohol 8+2]

concentration in plasma (Rat [10]; 0.25 h): 182 µg/mL | concentration in plasma (Rat [10]; 24 h): 28.1 µg/mL | concentration in plasma (Rat [11]; 0.25 h): 154 µg/mL | concentration in plasma (Rat [11]; 24 h): 32.9 µg/mL
SMILES: NC=O [Formamide]

SMILES: c1ccncc1 [Pyridine]
concentration in plasma (Rat [12]): 26.3 µg/mL | concentration in plasma (Rat [13]): 14.5 µg/mL | concentration in plasma (Rat [14]): 30.2 µg/mL
